The values below come from a collection of fitness landscapes (doi:10.1126/science.1257360).

B1: PhoQ; a variant is named by its letters at X, in order, P23837 (parent)
chain: MKKLLRLFFPLSLRVRFLLATAAVVLVLSLAYGMVALIGYSVSFDKTTFRLLRGESNLFYTLAKWENNKLHVELPENIDKQSPTMTLIYDENGQLLWAQRDVPWLMKMIQPDWLKSNGFHEIEADVNDTSLLLSGDHSIQQQLQEVREDDDDAEMTHSVAVNVYPATSRMPKLTIVVVDTIPVELKSSYMVWSWFIYVLSANLLLVIPLLWVAAWWSLRPIEALAKEVRELEEHNRELLNPATTRELTSLVRNLNRLLKSERERYDKYRTTLTDLTHSLKTPLXXLQXXLRSLRSEKMSVSDAEPVMLEQISRISQQIGYYLHRASMRGGTLLSRELHPVAPLLDNLTSALNKVYQRKGVNISLDISPEISFVGEQNDFVEVMGNVLDNACKYCLEFVEISARQTDEHLYIVVEDDGPGIPLSKREVIFDRGQRVDTLRPGQGVGLAVAREITEQYEGKIVAGESMLGGARMEVIFGRQHSAPKDE

The other results are listed elsewhere or left out.

The variants in this test derive from B1. Description: enrichment ratio after two sorts for PhoP signalling (ratio (wild type AVST 3.29)); higher = more functional. The following applies: with PhoP (E. coli).
For FDKV, the enrichment ratio was at most 0.25.

As to QARL, the enrichment ratio is at most 0.25.

For NEFW, the enrichment ratio was at most 0.25.

With WVTG, the enrichment ratio was at most 0.25.

For TKQF, the enrichment ratio was at most 0.25.

In the case of MSPK, the enrichment ratio was at most 0.25.

Regarding NGKI, the enrichment ratio was at most 0.25.

As for VKLE, the enrichment ratio is at most 0.25.

Turning to MLKN, the enrichment ratio is at most 0.25.

As for SMQN, the enrichment ratio is at most 0.25.

For YVTF, the enrichment ratio was at most 0.25.

For the variant SHYA, the enrichment ratio was at most 0.25.

Turning to WQGI, the enrichment ratio was at most 0.25.

For PWPW, the enrichment ratio was at most 0.25.

Regarding FNTF, the enrichment ratio was at most 0.25.

With FPWC, the enrichment ratio was at most 0.25.

GRKK: the enrichment ratio was at most 0.25.

In the case of LKVD, the enrichment ratio is at most 0.25.

Take EFGA: the enrichment ratio was at most 0.25.

For MTFG, the enrichment ratio is at most 0.25.

In the case of HKTV, the enrichment ratio was at most 0.25.

Consider CASL, for which the enrichment ratio is at most 0.25.

As for RYGK, the enrichment ratio is at most 0.25.

On to NRFY, for which the enrichment ratio was at most 0.25.

Take RHLG: the enrichment ratio was at most 0.25.

For the variant KLSC, the enrichment ratio is at most 0.25.

Consider KDHE, for which the enrichment ratio was at most 0.25.

With AGIK, the enrichment ratio is 3.7.

Turning to PFFL, the enrichment ratio was at most 0.25.

Regarding SDHM, the enrichment ratio is at most 0.25.

FITM: the enrichment ratio is at most 0.25.

DNIY: the enrichment ratio was at most 0.25.

For LSPF, the enrichment ratio was at most 0.25.

KAGT: the enrichment ratio was at most 0.25.

As to NNHF, the enrichment ratio was at most 0.25.

In the case of RQHV, the enrichment ratio is at most 0.25.

Take RRQW: the enrichment ratio was at most 0.25.

As to YYHR, the enrichment ratio is at most 0.25.

Regarding AYTY, the enrichment ratio was at most 0.25.

In the case of WYKP, the enrichment ratio was at most 0.25.

For the variant AFAT, the enrichment ratio is at most 0.25.

As for RGAF, the enrichment ratio is at most 0.25.

For LRRD, the enrichment ratio was at most 0.25.

Consider RPML, for which the enrichment ratio is at most 0.25.

For the variant QNCC, the enrichment ratio is at most 0.25.

Take YGEL: the enrichment ratio was at most 0.25.

Take NNPH: the enrichment ratio was at most 0.25.

In the case of YVDM, the enrichment ratio is at most 0.25.

Regarding PQHW, the enrichment ratio was at most 0.25.

Turning to FLGR, the enrichment ratio was at most 0.25.

Turning to ENLG, the enrichment ratio is at most 0.25.

Turning to SDCS, the enrichment ratio is 5.14.

Regarding SILT, the enrichment ratio was found to be 9.39.

For IRHC, the enrichment ratio is at most 0.25.

With MEKL, the enrichment ratio was at most 0.25.

As to PVEG, the enrichment ratio was at most 0.25.

As for WERL, the enrichment ratio is at most 0.25.

Turning to TSDG, the enrichment ratio was 0.59.

LCKG: the enrichment ratio is at most 0.25.

With AMYY, the enrichment ratio is at most 0.25.

Regarding LNEM, the enrichment ratio was at most 0.25.

Turning to LLVP, the enrichment ratio was at most 0.25.

Turning to SLSQ, the enrichment ratio turned out to be 6.85.

Take WISG: the enrichment ratio was at most 0.25.

For ILDY, the enrichment ratio is at most 0.25.

Take HMKP: the enrichment ratio was at most 0.25.

As for WGRM, the enrichment ratio is at most 0.25.

Consider WNLG, for which the enrichment ratio is at most 0.25.

LNML: the enrichment ratio was 2.48.

In the case of WVPT, the enrichment ratio is at most 0.25.

As to HWVN, the enrichment ratio is at most 0.25.

Consider LNEQ, for which the enrichment ratio is at most 0.25.

ICAA: the enrichment ratio is at most 0.25.

With KTYH, the enrichment ratio was at most 0.25.

With EGQF, the enrichment ratio is at most 0.25.

As for DPFE, the enrichment ratio is at most 0.25.

Regarding KKIQ, the enrichment ratio was at most 0.25.

Regarding VGSI, the enrichment ratio was found to be 1.1.

On to PRHK, for which the enrichment ratio is at most 0.25.

On to IHWP, for which the enrichment ratio is at most 0.25.

For MHGF, the enrichment ratio was at most 0.25.

For IQFS, the enrichment ratio was at most 0.25.

Turning to DTGE, the enrichment ratio is at most 0.25.

For the variant MMLP, the enrichment ratio was at most 0.25.

Take GTTS: the enrichment ratio was at most 0.25.

As to AMIQ, the enrichment ratio is at most 0.25.

As for VTQV, the enrichment ratio is at most 0.25.

Turning to WWFK, the enrichment ratio is at most 0.25.

On to EQNG, for which the enrichment ratio is at most 0.25.

Consider QAAS, for which the enrichment ratio was at most 0.25.

As for NHMP, the enrichment ratio is at most 0.25.

For MGQY, the enrichment ratio was at most 0.25.

For the variant MHSV, the enrichment ratio was at most 0.25.

For the variant DKQH, the enrichment ratio is at most 0.25.

For INRQ, the enrichment ratio is at most 0.25.

Take YYFY: the enrichment ratio was at most 0.25.

As to LGQH, the enrichment ratio is at most 0.25.

As to REEY, the enrichment ratio is at most 0.25.

As for IMIN, the enrichment ratio is at most 0.25.

Consider PSWF, for which the enrichment ratio is at most 0.25.

On to VCVK, for which the enrichment ratio is at most 0.25.

With NNLA, the enrichment ratio was at most 0.25.

Consider EKIC, for which the enrichment ratio was at most 0.25.

For the variant PFDS, the enrichment ratio is at most 0.25.

As to HAGM, the enrichment ratio is at most 0.25.

Consider KRCP, for which the enrichment ratio was at most 0.25.

Turning to GHCA, the enrichment ratio is at most 0.25.

For NKEL, the enrichment ratio is at most 0.25.

With GAMY, the enrichment ratio was at most 0.25.

Turning to QVHW, the enrichment ratio was at most 0.25.

In the case of TWDL, the enrichment ratio is at most 0.25.

YFFR: the enrichment ratio was at most 0.25.

For the variant SIME, the enrichment ratio is 2.93.

On to LHTW, for which the enrichment ratio is at most 0.25.

Turning to NDCV, the enrichment ratio was at most 0.25.

On to EPIM, for which the enrichment ratio is at most 0.25.

Consider YEIA, for which the enrichment ratio amounted to 0.354.

On to WLHI, for which the enrichment ratio was at most 0.25.

As for FLIV, the enrichment ratio was at most 0.25.

With WLLT, the enrichment ratio is at most 0.25.

Regarding FHRL, the enrichment ratio was at most 0.25.

For TIVG, the enrichment ratio was at most 0.25.

As for KCPW, the enrichment ratio was at most 0.25.

Regarding FWVY, the enrichment ratio is at most 0.25.

In the case of HSLE, the enrichment ratio is at most 0.25.

Regarding VRTA, the enrichment ratio is at most 0.25.

With AFVM, the enrichment ratio was at most 0.25.

Take LGAL: the enrichment ratio is at most 0.25.

Take MEIF: the enrichment ratio was at most 0.25.

For the variant LVFM, the enrichment ratio is at most 0.25.

For the variant TLHA, the enrichment ratio was at most 0.25.

Consider KPVQ, for which the enrichment ratio was at most 0.25.

Take QYAE: the enrichment ratio was at most 0.25.

Turning to QSWK, the enrichment ratio was at most 0.25.

For NEVQ, the enrichment ratio is at most 0.25.

In the case of SWHP, the enrichment ratio was at most 0.25.

Take AWMD: the enrichment ratio is at most 0.25.

For the variant NGSA, the enrichment ratio was at most 0.25.

Consider QELS, for which the enrichment ratio is at most 0.25.

Turning to SICV, the enrichment ratio turned out to be 16.6.

On to ELTT, for which the enrichment ratio was at most 0.25.

In the case of NTCP, the enrichment ratio was at most 0.25.

As to KNWM, the enrichment ratio was at most 0.25.

Turning to PHMS, the enrichment ratio is at most 0.25.

As to FYQC, the enrichment ratio was at most 0.25.

Take THPP: the enrichment ratio was at most 0.25.

On to HPNM, for which the enrichment ratio was at most 0.25.

Consider YWWF, for which the enrichment ratio is at most 0.25.

On to SMIG, for which the enrichment ratio came out at 0.688.

VDYD: the enrichment ratio is at most 0.25.

With IFCG, the enrichment ratio is at most 0.25.

As for YGCF, the enrichment ratio is at most 0.25.

Take IYLN: the enrichment ratio is at most 0.25.
